Results on one molecule are retold here after patent US20230086210A1 (Hoffmann-La Roche, published 2023).

For experiment [1], the target named is human 4-1BB on Jurkat-hu4-1BB-NFκB-luc2 reporter cells (human, UniProt Q07011 24-255). The experiment can be described thus: cell-based or functional assay. Also on record: unit not given beside the values.
For experiment [2], the target named is T1, human PD-L1 on MKN45-huPD-L1 cells (human, UniProt Q9NZQ7).
T1 construct: The entry is the complete precursor; also called MKN45-PD-L1; human PD-L1-expressing MKN45 cells
The experiment can be described thus: flow cytometry on MKN45-huPD-L1 cells, area under the binding curve. Details: unit not given beside the values. In general terms: In flow cytometry, cells or beads pass a laser one at a time.

T1 sequence (Q9NZQ7 19-290 limits assumed): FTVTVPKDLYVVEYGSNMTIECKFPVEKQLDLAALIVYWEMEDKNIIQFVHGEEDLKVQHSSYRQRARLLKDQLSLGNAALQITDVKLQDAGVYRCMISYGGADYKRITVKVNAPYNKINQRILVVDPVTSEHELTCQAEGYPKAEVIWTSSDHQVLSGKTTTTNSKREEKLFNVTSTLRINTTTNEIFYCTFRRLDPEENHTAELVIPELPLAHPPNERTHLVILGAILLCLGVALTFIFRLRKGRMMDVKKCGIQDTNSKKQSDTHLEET
Sequence of UniProt Q07011 (Q07011 24-255): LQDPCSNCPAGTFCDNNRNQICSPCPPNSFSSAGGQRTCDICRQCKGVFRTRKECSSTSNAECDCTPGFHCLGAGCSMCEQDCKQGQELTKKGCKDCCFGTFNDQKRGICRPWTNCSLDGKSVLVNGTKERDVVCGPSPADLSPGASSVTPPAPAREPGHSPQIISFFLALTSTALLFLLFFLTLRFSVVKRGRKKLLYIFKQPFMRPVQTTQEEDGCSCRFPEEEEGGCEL

B1: DP47-4-1BBL (untargeted control molecule DP47 split trimeric 4-1BB ligand Fc (kih) fusion antigen binding molecule) (Fc fusion)
chain 1: REGPELSPDDPAGLLDLRQGMFAQLVAQNVLLIDGPLSWYSDPGLAGVSLTGGLSYKEDTKELVVAKAGVYYVFFQLELRRVVAGEGSGSVSLALHLQPLRSAAGAAALALTVDLPPASSEARNSAFGFQGRLLHLSAGQRLGVHLHTEARARHAWQLTQGATVLGLFRVTPEIPAGLGGGGSGGGGSREGPELSPDDPAGLLDLRQGMFAQLVAQNVLLIDGPLSWYSDPGLAGVSLTGGLSYKEDTKELVVAKAGVYYVFFQLELRRVVAGEGSGSVSLALHLQPLRSAAGAAALALTVDLPPASSEARNSAFGFQGRLLHLSAGQRLGVHLHTEARARHAWQLTQGATVLGLFRVTPEIPAGLGGGGSGGGGSRTVAAPSVFIFPPSDRKLKSGTASVVCLLNNFYPREAKVQWKVDNALQSGNSQESVTEQDSKDSTYSLSSTLTLSKADYEKHKVYACEVTHQGLSSPVTKSFNRGE[sequence of human IgG1 Fc with changes not given]
chain 2: REGPELSPDDPAGLLDLRQGMFAQLVAQNVLLIDGPLSWYSDPGLAGVSLTGGLSYKEDTKELVVAKAGVYYVFFQLELRRVVAGEGSGSVSLALHLQPLRSAAGAAALALTVDLPPASSEARNSAFGFQGRLLHLSAGQRLGVHLHTEARARHAWQLTQGATVLGLFRVTPEIPAGLGGGGSGGGGSASTKGPSVFPLAPSSKSTSGGTAALGCLVEDYFPEPVTVSWNSGALTSGVHTFPAVLQSSGLYSLSSVVTVPSSSLGTQTYICNVNHKPSNTKVDEKVEPKSC
heavy: [sequence of about 100 residues not given]GSGFDYWGQGTLVTVSSASTKGPSVFPLAPSSKSTSGGTAALGCLVKDYFPEPVTVSWNSGALTSGVHTFPAVLQSSGLYSLSSVVTVPSSSLGTQTYICNVNHKPSNTKVDKKVEPKSCDKTHTCPPCPAPEAAGGPSVFLFPPKPKDTLMISRTPEVTCVVVDVSHEDPEVKFNWYVDGVEVHNAKTKPREEQYNSTYRVVSVLTVLHQDWLNGKEYKCKVSNKALGAPIEKTISKAKGQPREPQVCTLPPSRDELTKNQVSLSCAVKGFYPSDIAVEWESNGQPENNYKTTPPVLDSDGSFFLVSKLTVDKSRWQQGNVFSCSVMHEALHNHYTQKSLSLSP
light: [sequence of about 100 residues not given][sequence of about 100 residues not given]
notes: Non-PD-L1-targeted control with the same split trimeric 4-1BBL; also called untargeted control DP47-4-1BBL
In the case of B1, the “AUC of NFκB-activation-induced Luciferase activity curve” value in experiment [1] stood at 1850. The same molecule returned an AUC in experiment [2] of 387.
